Where a name gives a salt, the structure may show the parent alone. The list shows a part of the results.

The assay has as its system Schistosoma mansoni schistosomula. The assay is described as follows: phenotypic hit in primary schistosomula screen (any phenotype vs DMSO control) (binary (1 = hit, 0 = no phenotype)); higher = active (phenotype induced). The settings on record: 1 µM; time (d): 7.
As for `CON` [methoxyamine hydrochloride], the phenotypic hit is inactive: 0.

`CCN(CCO)CCCC(C)Nc1ccnc2cc(Cl)ccc12` (stereo unspecified) [hydroxychloroquine sulfate]: the phenotypic hit is inactive: 0.

As for `CCOC(=O)NNc1nncc2ccccc12` [todralazine hydrochloride], the phenotypic hit was inactive: 0.

Consider `CCCCN1CCCCC1C(=O)Nc1c(C)cccc1C` (stereo unspecified) [bupivacaine hydrochloride], for which the phenotypic hit was inactive: 0.

Consider `CC1(C)[C@@H](O)CC[C@]2(C)[C@H]3C(=O)C=C4[C@H]5C[C@@](C)(C(=O)O)CC[C@]5(C)CC[C@@]4(C)[C@]3(C)CC[C@@H]12` [18alpha-glycyrrhetinic acid], for which the phenotypic hit was inactive: 0.

Regarding `CC(=O)O[C@@H]1CC2C(C)(CC[C@H](O)C2(C)C)C2CC[C@]3(C)C(=CC(=O)O[C@H]3c3ccoc3)C21C` (stereo partly drawn) [3beta-hydroxydeoxodihydrodeoxygedunin], the phenotypic hit was inactive: 0.

As for `O=c1c(-c2cc(O)c(O)c(O)c2)coc2cc(O)c(O)c(O)c12` [irigenol], the phenotypic hit was inactive: 0.

Take `CC[C@@H](C(=O)[C@@H](C)[C@@H](O)[C@H](C)CCc1ccc(C)c(O)c1C(=O)O)[C@H]1O[C@](CC)([C@H]2CC[C@](O)(CC)[C@H](C)O2)C[C@@H]1C` [lasalocid sodium]: the phenotypic hit was active: 1.

In the case of `CC(COc1ccccc1)NC(C)C(O)c1ccc(O)cc1` (stereo unspecified) [isoxsuprine hydrochloride], the phenotypic hit is inactive: 0.

Take `Cc1cc(=O)oc2c(O)c(O)ccc12` [4-methyldaphnetin]: the phenotypic hit is inactive: 0.

On to `CC12CCCC(O)(C1)C1CC(C)(C)C1CC2` (stereo not drawn) [beta-caryophyllene alcohol], for which the phenotypic hit is inactive: 0.

On to `COc1cc(OC)c(-c2c(OC)cc(OC)cc2OC)c(OC)c1` [difucol hexamethyl ether], for which the phenotypic hit is inactive: 0.

Regarding `C#C[C@]1(O)CC[C@H]2[C@@H]3CCC4=C(CCC(=O)C4)[C@H]3CC[C@@]21C` [norethynodrel], the phenotypic hit was inactive: 0.

For the molecule `CC[N+](CC)(CC)CCOc1cccc(OCC[N+](CC)(CC)CC)c1OCC[N+](CC)(CC)CC` [Gallamine triethiodide], the phenotypic hit was inactive: 0.

As for `CCOC(=O)[N-]c1c[n+](N2CCOCC2)no1` [molsidomine], the phenotypic hit is active: 1.

Consider `CC(C)(C)NCC(O)c1cc(O)cc(O)c1` (stereo unspecified) [terbutaline hemisulfate], for which the phenotypic hit was inactive: 0.

Consider `COc1ccc2c(c1)O[C@@H]1COc3cc(OC)c(OC)cc3[C@@H]1C2=O` [mundoserone], for which the phenotypic hit is inactive: 0.

As to `NCc1ccc(S(N)(=O)=O)cc1` [mafenide hydrochloride], the phenotypic hit was inactive: 0.

As for `CN[C@@H]1[C@H](O[C@H]2[C@H](O[C@H]3[C@H](O)[C@@H](O)[C@H](NC(=N)N)[C@@H](O)[C@@H]3NC(=N)N)O[C@@H](C)[C@]2(O)CO)O[C@@H](CO)[C@H](O)[C@H]1O` [dihydrostreptomycin sulfate], the phenotypic hit is inactive: 0.

Regarding `CC/C(=C(\c1ccccc1)c1ccc(OCCN(C)C)cc1)c1ccccc1` [Tamoxifen citrate], the phenotypic hit is inactive: 0.

As to `O=C(O)c1cccnc1C(=O)O` [Quinolinic acid], the phenotypic hit is inactive: 0.

Turning to `COc1cc2c(cc1-c1coc3c4c(c(OC)cc3c1=O)OC(C)(C)C=C4)OCO2` [ichthynone], the phenotypic hit is inactive: 0.

In the case of `CC(=O)O[C@@H]1C[C@H]2C(C)(C)[C@H](O)C[C@H](O)[C@]2(C)[C@H]2CC[C@@]3(C)[C@H](c4ccoc4)OC(=O)[C@H]4O[C@]43[C@@]21C` [1,3-dideacetylkhivorin], the phenotypic hit is inactive: 0.

With `CCOc1ccc(NC(C)=O)cc1` [phenacetin], the phenotypic hit is inactive: 0.

`CN1CCC[C@@H]1CCO[C@](C)(c1ccccc1)c1ccc(Cl)cc1` [clemastine]: the phenotypic hit was inactive: 0.

For `CC(C(=O)O)c1ccc(C(=O)c2cccs2)cc1` (stereo unspecified) [suprofen], the phenotypic hit was inactive: 0.

On to `CC(=O)O[C@H]1CC[C@]2(C)[C@H]3C(=O)C=C4[C@@H]5C[C@@](C)(C(=O)O)CC[C@]5(C)CC[C@@]4(C)[C@]3(C)CC[C@H]2C1(C)C` [acetoxolone], for which the phenotypic hit is inactive: 0.

Turning to `N[C@@H](C=O)[C@@H](O[C@@H]1O[C@H](C(=O)O)[C@@H](O)[C@H](O)[C@H]1O)[C@@H](O)[C@H](O)CO` [chondrosine], the phenotypic hit was inactive: 0.

On to `COc1ccc(C(=O)c2ccccc2O)c(O)c1` [dioxybenzone], for which the phenotypic hit was inactive: 0.

As for `COCCc1ccc(OCC(O)CNC(C)C)cc1` (stereo unspecified) [metoprolol tartrate], the phenotypic hit was inactive: 0.

For `COc1ccc(-c2cc(=O)c3ccc(OC)cc3o2)cc1` [4,7-dimethoxyflavone], the phenotypic hit was inactive: 0.

On to `COC1=CC(=O)C=C(OC)C1=O` [2,6-dimethoxyquinone], for which the phenotypic hit is inactive: 0.

As to `CCOC(=O)C1=C(O)C(=O)N(Cc2ccccc2)C1` [ethyl 1-benzyl-3-hydroxy- 2-oxo[5h]pyrrole-4-carboxylate], the phenotypic hit is inactive: 0.

Regarding `O=c1c(O)c(-c2ccc(O)c(O)c2)oc2cc(O)cc(O)c12` [quercetin], the phenotypic hit was inactive: 0.

`CC(=O)Nc1cccc(O)c1` [metacetamol]: the phenotypic hit is inactive: 0.

`O=C(O)C1(C(=O)O)CCC1.[NH2-].[NH2-].[Pt+2]` [carboplatin]: the phenotypic hit is inactive: 0.

Consider `N=C(N)NCCCCN` [Agmatine sulfate], for which the phenotypic hit was inactive: 0.

On to `CN1CCOC(c2ccccc2)c2ccccc2C1` (stereo unspecified) [nefopam], for which the phenotypic hit is inactive: 0.

As for `COc1cc2occ(-c3ccccc3)c(=O)c2c(OC)c1C` [4,6-dimethoxy-5-methylisoflavone], the phenotypic hit is inactive: 0.

Take `CC1(C)CC[C@]2(C(=O)O)CC[C@]3(C)C(=CCC4[C@@]5(C)CC[C@@H](O)C(C)(C)C5CC[C@]43C)C2C1` (stereo partly specified) [oleanoic acid]: the phenotypic hit was inactive: 0.

Take `CCN(CC)CCOc1ccc(C(=C(Cl)c2ccccc2)c2ccccc2)cc1` [clomiphene citrate]: the phenotypic hit is active: 1.

On to `CCCCNc1ccc(C(=O)OCCN(C)C)cc1` [Tetracaine hydrochloride], for which the phenotypic hit was inactive: 0.

On to `NC(=O)c1ccc[n+]([C@@H]2O[C@H](COP(=O)([O-])OP(=O)(O)OC[C@H]3O[C@@H](n4cnc5c(N)ncnc54)[C@H](OP(=O)(O)O)[C@@H]3O)[C@@H](O)[C@H]2O)c1` [sodium beta-nicotinamide adenine dinucleotide phosphate], for which the phenotypic hit was inactive: 0.

As to `CCc1ccc2c(O)c3c(cc2c1C(=O)OC)C(=O)c1c(O)ccc(O)c1C3=O` [bisanhydrorutilantinone], the phenotypic hit is inactive: 0.

Consider `C=C1C2CC[C@@]3(C)[C@H](c4ccoc4)OC(=O)C[C@]13O[C@H]1CC(=O)C(C)(C)[C@H](C(O)C(=O)OC)[C@@]21C` (stereo partly specified) [6-hydroxyangolensic acid methyl ester], for which the phenotypic hit was inactive: 0.

For the molecule `O=C1[C@H](CC[C@H](O)c2ccc(F)cc2)[C@@H](c2ccc(O)cc2)N1c1ccc(F)cc1` [ezetimibe], the phenotypic hit was inactive: 0.

In the case of `CC(=O)O[C@H]1C[C@@H](OC(C)=O)C(C)(C)[C@@H]2C[C@@H](OC(C)=O)[C@@]3(C)C4=CC(=O)O[C@@H](c5ccoc5)[C@]4(C)CC[C@@H]3[C@@]12C` [deoxykhivorin], the phenotypic hit was inactive: 0.

For `COC(=O)C1=C(C)NC(C)=C(C(=O)OCCN(C)Cc2ccccc2)C1c1cccc([N+](=O)[O-])c1` (stereo unspecified) [Nicardipine hydrochloride], the phenotypic hit is inactive: 0.

For `COC(=O)[C@H]1[C@H]2C[C@@H]3c4[nH]c5cc(OC)ccc5c4CCN3C[C@H]2C[C@@H](OC(=O)/C=C/c2cc(OC)c(OC)c(OC)c2)[C@@H]1OC` [rescinnamine], the phenotypic hit is inactive: 0.

As to `CC(C)=CCc1c2c(c3occ(-c4ccc(O)cc4)c(=O)c3c1O)C=CC(C)(C)O2` [osajin], the phenotypic hit was inactive: 0.

As for `C=C1C2=CC(=O)O[C@@H](c3ccoc3)[C@]2(C)CC[C@@H]1[C@@]1(C)C=CC(=O)C(C)(C)[C@@H]1CC(=O)OC` [deoxyandirobin], the phenotypic hit was inactive: 0.

Take `O=c1c2ccccc2oc2ccc(O)cc12` [2-hydroxyxanthone]: the phenotypic hit is inactive: 0.

With `C[C@@H]1CC[C@@]23CCC4(C)[C@@](C=CC5[C@@]6(C)CCC(=O)C(C)(C)C6CC[C@]54C)(OC2=O)C3[C@H]1C` (stereo partly specified) [3-oxoursan (28-13)olide], the phenotypic hit is inactive: 0.

With `NC(=O)NC1NC(=O)NC1=O` (stereo unspecified) [allantoin], the phenotypic hit is inactive: 0.

On to `CN(C)CCOC(c1ccc(Cl)cc1)c1ccccn1` (stereo unspecified) [carbinoxamine maleate], for which the phenotypic hit was inactive: 0.

As to `COc1ccc(-c2cc(=O)c3c(OC)cccc3o2)cc1` [5,4'-dimethoxyflavone], the phenotypic hit is inactive: 0.

As for `COc1c2ccoc2cc2oc(=O)ccc12` [bergapten], the phenotypic hit is inactive: 0.

`CCCCCCCCCCCC1=C(O)C(=O)C=C(O)C1=O` [embelin]: the phenotypic hit was inactive: 0.

Consider `CC(=O)OC(C)(C)[C@@H]1Cc2cc3ccc(=O)oc3cc2O1` [marmesin acetate], for which the phenotypic hit was inactive: 0.

With `Cc1ccccc1C(OCCN(C)C)c1ccccc1` (stereo unspecified) [orphenadrine citrate], the phenotypic hit is inactive: 0.

In the case of `O=C1C(O)=C([C@H]2CC[C@H](c3ccc(Cl)cc3)CC2)C(=O)c2ccccc21` [atovaquone], the phenotypic hit was inactive: 0.

For `CC(=O)OCC1=C(C(=O)O)N2C(=O)[C@@H](NC(=O)Cc3cccs3)[C@H]2SC1` [cephalothin sodium], the phenotypic hit was inactive: 0.

For `CCN(CC)CCNC(=O)COc1ccc(OC)cc1` [mefexamide], the phenotypic hit is inactive: 0.

With `CCCCc1nc(Cl)c(CO)n1Cc1ccc(-c2ccccc2-c2nnn[nH]2)cc1` [losartan], the phenotypic hit was inactive: 0.

For the molecule `CC1(C)S[C@@H]2[C@H](NC(=O)Cc3ccccc3)C(=O)N2[C@H]1C(=O)O` [penicillin g potassium], the phenotypic hit was inactive: 0.

As to `COC(=O)C[C@H]1C(C)(C)[C@@H](OC(C)=O)[C@@H]2CC3C4CC(=O)O[C@@H](c5ccoc5)[C@]4(C)CCC3[C@@]1(C)C2=O` (stereo partly specified) [dihydrofissinolide], the phenotypic hit was inactive: 0.

(Values after the supplement of paper PMC2702839.)
